Target: EBNA1 with a shortened Gly-Ala repeat (referred to as EBNA1) (Epstein-Barr virus)

Substance: USP7 (ubiquitin specific protease USP7), full length (a stretch of the chain, letters omitted) (enzyme)
- DNA binding affinity of EBNA1 for a single recognition site (EMSA), with excess USP7 against without: 20 fold
